± gives the standard deviation of the averaged measurements. The list shows a part of the results.
test system: PfAP2-EXP AP2 domain (GST-tagged); assay: gcPBM binding intensity (ln(normalized median fluorescence intensity)); higher = stronger DNA binding
In short: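 Plasmodium falciparum DNA-binding domains carrying a GST tag were expressed in E. coli and applied for 1 h, at about 25 μg on average, to an Agilent 4 × 180k array. The array held primer-extended double-stranded 36-bp intergenic genomic probes together with negative controls, and binding took place in 1× PBS with 1% milk, 0.2 mg/ml BSA, 0.5% salmon testes DNA and 0.03% Triton X-100. An Alexa488 anti-GST antibody detected bound protein, and the array was scanned at 488 nm. Binding intensity is taken as the highest Masliner-normalised natural-log median intensity across replicate spots of either probe orientation.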

| Sequence | gcPBM binding intensity (ln) |
| --- | --- |
| ACATAATATACTATTGTGCACATATATATATATATA [GTGCAC_site9761] | 10.1 ± 0.45 |
| GTTAATTTAATTATATGTACGAAAAAATACGTTATA [XGTACX_site1306] | 8.46 ± 0.28 |
| TTTTTATTTTTTTATTTCTTATCAAATAAAATATAT [XGTACX_negctrl_site537] | 8.32 ± 0.36 |
| TTACAAAAAGGTAATTTACACACTGCATATAGGAAT [CACACA_site8956] | 8.87 ± 0.36 |
| TCTTAATATGGTAATACACACTAATATACTTTTGTT [CACACA_site4969] | 8.55 ± 0.31 |
| ACCCTTCAATTTAATTGTACAAGAAAAAAAAAAAAA [XGTACX_site2927] | 8.54 ± 0.54 |
| AAATAATCATAAAATAAACACACATATATAAATATA [CACACA_site7981] | 8.52 ± 0.44 |
| TGCTCAAACTTTACAAATGAACGAATATAAAAAAAG [CACACA_negctrl_site541] | 8.82 ± 0.59 |
| ATTCTTTTTTTTTTCTTATATTCTAATCACCACCTT [XGTACX_negctrl_site179] | 8.72 ± 0.56 |
| TAAAATTAAATGAAATCATTATTCATTTTTATTTTA [CACACA_negctrl_site1281] | 7.68 ± 0.4 |
| CATATAAATAAACACACACACACATATATATATATA [CACACA_site5309] | 10.2 ± 0.29 |
| AATAGGTGCCTTTTTTCACACACATGTCAACTAAAT [CACACA_site8846] | 8.84 ± 0.28 |
| TTTGGTAAGCGTGTCGCATGTAGAACAAGTCTACAT [TGCATGCA_site577] | 8.52 ± 0.42 |
| ATGAAATTATTATATAAACACACATTTATTTTATTT [CACACA_site8597] | 8.17 ± 0.3 |
| TAAATACAGACATACACACATACACCCACATATATA [CACACA_site547] | 8.7 ± 0.5 |
| AGGAACATTTACGCCCCACACACCTACCAACAAAAA [CACACA_site3827] | 9.11 ± 0.64 |
| ATTAAAATGGAGTATTAATATGATATATATATATAT [GTGCAC_negctrl_site509] | 10 ± 0.31 |
| TATATATATATTTTTGGTACAGATATTTTCTTCTCT [XGTACX_site4432] | 9.65 ± 0.18 |
| AATATATATATATATTGTACACACATTTATGCATAT [XGTACX_site6856] | 8.9 ± 0.29 |
| TTACAACCATAAAATGCATGTAAATGACAAAAAAAA [TGCATGCA_site944] | 8.81 ± 0.3 |
| TAAATTAAATATTATAAACACACATATATATTATTT [CACACA_site8189] | 8.28 ± 0.47 |
| TTAAAAAATTATTGTAGTACATAGGAAATGAAAAAA [XGTACX_site155] | 8.83 ± 0.14 |

| Sequence | gcPBM binding intensity (ln) |
| --- | --- |
| AAAAAAAAAAAATGAGCACACATAAATAAAAACAAA [CACACA_site8447] | 8.7 ± 0.48 |
| TATATACATAAAATTTGTACATATATATATATATAT [XGTACX_site3214] | 10.1 ± 0.51 |
| ATATAAATAAATACAACACACATGTCATATCTAAAT [CACACA_site7533] | 8.38 ± 0.42 |
| ATATTATTCTTATATTCACACAGTTTATATTTCCGT [CACACA_site5653] | 8.85 ± 0.45 |
| AAATTACATACACGCGCACACACAAAAAAAAAAAAA [CACACA_site1335] | 8.61 ± 0.45 |
| ATATTATAGTATATAACACACATTTTTCATAACACT [CACACA_site6331] | 8.46 ± 0.29 |
| TATATAATTAAAATAACACACATATATAAAAATATA [CACACA_site2990] | 8.52 ± 0.36 |
| TGGCAAAATAGGCACACACACATATACATATATATT [CACACA_site1059] | 8.54 ± 0.53 |
| GTATATATATTTCTTTAATAATTAAATTATAAATAT [CACACA_negctrl_site640] | 8.47 ± 0.4 |
| TATTATATCTTATATGTATATTCCCACAAATTATAT [GTGCAC_negctrl_site362] | 8.47 ± 0.4 |
| AATATATAAACACGTACACACACATATATGTATATA [CACACA_site9168] | 8.73 ± 0.43 |
| AATTTAAATATTTGTTGTACGTATTTATATATTCTT [XGTACX_site3623] | 8.72 ± 0.4 |
| CATGCCGTTAAATTATGTACTTATTATTTTAATATG [XGTACX_site4209] | 8.47 ± 0.36 |
| ATAATATATAAACACACACACATATATAAATACATT [CACACA_site4466] | 8.57 ± 0.63 |
| AACAATTATTTGTCGACACACGTATATGTTATTTAG [CACACA_site5046] | 8.89 ± 0.4 |
| TATTTATATTCCTTTACACACTCCATCTTATATCCA [CACACA_site3604] | 8.89 ± 0.55 |
| ATTTTTGTTATTACATGTACCCATAATTATTATTAA [XGTACX_site3558] | 9.22 ± 0.44 |
| ACCGTGGGAGGACACACACACACACCCACATATATA [CACACA_site4339] | 8.54 ± 0.4 |
| ACAAAAAAATGAAAAGAAAAAGATATACCCCAATAT [CACACA_negctrl_site509] | 8.99 ± 0.8 |
| ATATCCATAATAAAAACATGCAACAGAAAAAAAAAA [TGCATGCA_site497] | 8.9 ± 0.14 |
| AAGAGAAATATATATTGTACAATAATTTTATTTGGT [XGTACX_site7642] | 8.45 ± 0.2 |
| TATATATTAATATTTACACACATGCGCACCCATAAA [CACACA_site2410] | 9.75 ± 0.85 |

| Sequence | gcPBM binding intensity (ln) |
| --- | --- |
| TTCCAAAAAATTATTACACACATATGAGCACATATA [CACACA_site4543] | 8.32 ± 0.41 |
| TACGGTTGTTTATTTTGTACGTAAAAAATATATTAT [XGTACX_site8393] | 9.04 |
| TATTAATTAAAAAAATGTACATAATTATAAATTTTT [XGTACX_site7994] | 8.37 ± 0.35 |
| TAATATACATATATATGTACATATATATATATATAT [XGTACX_site2684] | 9.93 ± 0.35 |
| AAGGGTTATTTGATATGTACTTATATATATATATAA [XGTACX_site1659] | 8.53 ± 0.41 |
| AAGGTGGAAACAATTACACACACACTAATAAAAAAA [CACACA_site9051] | 8.71 ± 0.53 |
| TTTTTTAAAAGAAAATAAAAAATAAGCATAATATGA [CACACA_negctrl_site1574] | 8.51 ± 0.48 |
| AAGTACAAATTTAATAAAAATGAAACAAATATGTAT [TGCATGCA_negctrl_site94] | 8.47 ± 0.43 |
| ATGGAATTTTTAGAATATGGATAATGTTACTTAAGT [CACACA_negctrl_site494] | 8.36 ± 0.46 |
| GTTATATATATATATATATATATATATATTTTTTTT [GTGCAC_negctrl_site597] | 8.84 ± 0.15 |
| TATATCGTTAATTATACACACATAAAATTAAACTTT [CACACA_site1274] | 8.25 ± 0.21 |
| AAAAACCATGGGCACACACACATAATATATAATATA [CACACA_site1425] | 8.89 ± 0.55 |
| TAAAAAAAGGAAAACATACAATTCTATTTTTCAATA [CACACA_negctrl_site474] | 8.12 ± 0.46 |
| AAATTAAAAAAGAATATACACACCAAAACTGTTTGT [CACACA_site958] | 8.25 ± 0.45 |
| TATAATAATACTTATTGTACGATTAGCTTAATTCGT [XGTACX_site15] | 8.32 ± 0.35 |
| TATATAAATAGATACACACATACATACATACATACA [CACACA_site260] | 9.16 ± 0.16 |
| ACCATACATACATACACACACACACGCATATTTATA [CACACA_site7386] | 9.05 ± 0.6 |
| TAATTTTAAATATCTTCACACATTATATTTTTATAT [CACACA_site5411] | 8.34 ± 0.42 |
| AAGTAGTGTTAATACTGTACTTATATTTTTTATTAT [XGTACX_site8264] | 8.33 ± 0.18 |
| TCATCTTTTATATGTTGTACGTATTTTCATTTATAT [XGTACX_site4855] | 8.93 ± 0.28 |
| ATTTAAAAAAGAAAGGTGCATTTCAATAATGTAAAA [GTGCAC_site9585] | 8.62 ± 0.15 |
| TTGATATTTTTTTTATGTACACATGTTCATATTTTT [XGTACX_site8095] | 8.81 ± 0.37 |

| Sequence | gcPBM binding intensity (ln) |
| --- | --- |
| TCACATATTATCTTTACACACTATAAATAAGTTTTA [CACACA_site7335] | 8.56 ± 0.46 |
| ATAATTTGATGGTTAACACACATATAGATTATAGAT [CACACA_site7200] | 8.52 ± 0.45 |
| TTTTTTTCTTTTTGAGGTACGCATTATTTTATTTGT [XGTACX_site6996] | 8.49 ± 0.43 |
| AAAAAAATGAAACACACACACACATATATATATATA [CACACA_site1043] | 10.1 ± 0.26 |
| AAACAATTACACATATGTATGTATATATATATATAT [TGCATGCA_negctrl_site536] | 10.1 ± 0.42 |
| ACAAAGTTTATAGAACGTACATACTTACACATATTT [XGTACX_site556] | 8.41 ± 0.51 |
| TTATTATATATATCTCGTACGTGTATACGCCTACCA [XGTACX_site8375] | 8.87 ± 0.45 |
| TGTTATATTTCAAATTGTACTAATCTAATTAATAAA [XGTACX_site604] | 8.19 ± 0.33 |
| AAAGATTGCGATGGTTGTACTTTTCTATATTTTTTT [XGTACX_site3492] | 8.63 ± 0.59 |
| CTAAAATACGAACACACACACACATATAAATAAATA [CACACA_site7872] | 8.77 ± 0.57 |
| TATACTTCTTATTAAATGAGTAGTATATATTATATA [TGCATGCA_negctrl_site299] | 8.06 ± 0.37 |
| CTATTTCATAAACACACACACACAAACAAACATATA [CACACA_site8234] | 8.88 ± 0.58 |
| AAATAATACCAAATGTGTACTTATTTCACTAATAGA [XGTACX_site7571] | 8.38 ± 0.28 |
| GGAATAATAAAATTATGTACATAAGAATCATATACT [XGTACX_site6810] | 8.65 ± 0.4 |
| ATATATACTTATATTTGTACACAAAGGTATCTCTAG [XGTACX_site3805] | 8.49 ± 0.37 |
| AGTTTTATATAAGCTTGTACTTAATATTATTAAGTA [XGTACX_site5919] | 8.56 ± 0.23 |
| AAAAAAAAAAATCGCTGTACTTCTAAAGGTGTGTTA [XGTACX_site843] | 8.29 ± 0.52 |
| CAAACAAACGGACACACACACACACCCAAAAATGAT [CACACA_site5363] | 8.67 ± 0.48 |
| ACGGACTTAAAATACACACACACCAAAAAAAAAAAA [CACACA_site7304] | 8.41 ± 0.63 |
| TTTGATAAATTATACACACACAATATATATAAAATA [CACACA_site2023] | 8.44 ± 0.43 |
| AATAATATATAATAATGTACAAAAAAAAAAAAAAAA [XGTACX_site4158] | 8.23 ± 0.53 |

Source: the supplement of paper PMC11417369
